# Experimental data from PubChem BioAssay (NCATS).
# Inconclusive results, whose numbers are uncertain, are shown with a selection of clear calls. Potencies beside an inconclusive call are fits to weak or partial responses and may not hold up. Active and inactive are the calls of the source. The call rests on the fitted dose curve; in most records, active means well fitted activation curve with a large enough effect in the signal ratio, with a control signal flat (not every such curve was filed as active); inconclusive means small, poorly fitted or top-dose-only effect, or effect the other way, or a change in a side signal; inactive means flat fitted curve, though single readings scatter; the % refers to the signal ratio.
# Test: qHTS Assay for Identification of Small Molecule Agonists for Hypoxia Response Element Signaling Pathway (AID 914); on activation: top concentration of the series differs between compounds; % of control where 0% means no effect
# Conditions: ME-180 (cervical carcinoma) HRE-bla reporter, beta-lactamase ratio, CoCl2, 17 h; activation: hits give high values
# Summary of the method: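 qHTS titration; ME-180 HRE-bla cells; EC50 CoCl2 co-treatment, 17 h at 37 degrees Celsius; CCF4 dye, ex 405nm, em 460nm and 530nm; %Activity from ratio; AC50.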
# Potency means the concentration at half of the fitted maximal effect; tags describe the fitted curve by direction and shape or compound fluorescence and quenching.
Structure (SMILES),activation,Potency
CC(C)(C)c1ccc(O)c(N)c1,inconclusive: -31.8%,–
NC(N)=NC[C@H](N)C(=O)O,inconclusive: 9.73%,–
CC(CC(=O)O)(CC(=O)O)C(=O)O,–,"inconclusive: 794 nM [inhibitor, single point]"
CC(NC(=O)Nc1ncccn1)(C(F)(F)F)C(F)(F)F,inconclusive: 32.5%,–
CC(C)(N=NC(C)(C)C(=N)N)C(=N)N,inconclusive: 7.18%,–
Cc1cccc(OCC(=O)NCC(=O)n2nc(C)cc2C)c1,inactive: 14.3%,–
Fc1cccc(F)c1C(Nc1nncs1)Nc1nncs1,inconclusive: -30.5%,–
